{"source": "ChEMBL document CHEMBL4888484", "about": "“Replenishing the malaria drug discovery pipeline: Screening and hit evaluation of the MMV Hit Generation Library 1 (HGL1) against asexual blood stage Plasmodium falciparum ,using a nano luciferase reporter read-out” (2022)", "note": "Hit rate of the full screen: of about 150,000 compounds, about 540 (0.36%) showed an effect of 50% or more. The list shows a part of the results."}
{"test_system": "Plasmodium falciparum", "experiment": "Primary screen in NF54 nanoGlo assay, in single point, at 2uM, 72h; a lower Z score goes with more inhibition", "assay_type": "functional, Erythrocyte", "conditions": "timepoint 72 hour", "units": {"% Inhibition": "%"}}
{"smiles": "O=C(NCc1cccc(F)c1)c1cc(OCc2ccccc2)nc2ccccc12", "% Inhibition": -7, "Z score": 0.65}
{"smiles": "CN(C)c1ncc2c(n1)CCC[C@@H]2NC1CCOCC1", "% Inhibition": -5, "Z score": 0.86}
{"smiles": "FC(F)(F)C1CCN(Cc2ccccn2)CC1", "% Inhibition": -1, "Z score": 0.19}
{"smiles": "CCn1c2ccccc2c2nnc(N3CCN(c4cc(Cl)ccc4C)CC3)nc21", "% Inhibition": -10, "Z score": 1.93}
{"smiles": "Cc1cnc(C2CC2)n1[C@H]1CCN(Cc2cn(C)c3ccccc23)C1", "% Inhibition": -8, "Z score": 0.96}
{"smiles": "Cn1c(C(=O)N2CCN(c3ccccn3)CC2)cc2cc(F)ccc21", "% Inhibition": -5, "Z score": 0.6}
{"smiles": "CN(C(=O)NC1CCCCC1)C1CCN(c2ccccn2)CC1", "% Inhibition": -1, "Z score": 0.17}
{"smiles": "CNc1ncccc1C(=O)N[C@@H]1COCC[C@@H]1OCc1ccccc1", "% Inhibition": -10, "Z score": 0.96}
{"smiles": "O=C(NCc1ccc([C@H](O)c2ccccc2)s1)NC1CCOCC1", "% Inhibition": -1, "Z score": 0.14}
{"smiles": "O=C(Nc1cc(CCc2ccccc2)n[nH]1)c1cccc[n+]1[O-]", "% Inhibition": 12, "Z score": -1.36}
{"smiles": "O=C(CCn1cnnn1)Nc1n[nH]c(-c2ccc(F)c(Cl)c2)n1", "% Inhibition": -13, "Z score": 1.73}
{"smiles": "CN(C(=O)c1cccc(OCC(=O)O)c1)[C@H]1CC[C@@H](C(F)(F)F)CC1", "% Inhibition": 18, "Z score": -2.11}
{"smiles": "O=C(NC[C@H]1CCCN(Cc2cc3c(cc2Cl)OCO3)C1)c1cccnc1", "% Inhibition": 1, "Z score": -0.1}
{"smiles": "C=C(C)COc1ccc(NC(=O)[C@@H]2CCCCCN2C)cc1", "% Inhibition": -7, "Z score": 0.68}
{"smiles": "Cc1ccc(S(=O)(=O)NC2CCOC(C(C)C)C2)cc1Br", "note": "(stereo unspecified)", "% Inhibition": -5, "Z score": 0.75}
{"smiles": "C[C@@]1(C(F)F)CN(C(=O)Nc2ccn(-c3ccc(Cl)cc3C#N)n2)CCO1", "% Inhibition": -3, "Z score": 0.47}
{"smiles": "COCCn1nnnc1[C@@H]1CN(Cc2ccc(N(C)C)nc2)CCO1", "% Inhibition": 1, "Z score": -0.13}
{"smiles": "COc1cccnc1NC(=O)c1cc(C(C)C)oc1C", "% Inhibition": -1, "Z score": 0.13}
{"smiles": "COc1ccc([C@@H](O)C(=O)N(C)Cc2cnc3ccccc3c2)cc1", "% Inhibition": -23, "Z score": 3.05}
{"smiles": "CN(CC(=O)Nc1nc(=O)cn[nH]1)S(=O)(=O)c1ccc(Br)cc1", "% Inhibition": 1, "Z score": -0.15}
{"smiles": "CCN(CC(F)(F)F)C(=O)C(=O)Nc1ccccc1Cl", "% Inhibition": 7, "Z score": -0.82}
{"smiles": "Cc1cccc(C(=O)NC(C)C(=O)N2CCCC2c2csc(C)n2)c1", "note": "(stereo unspecified)", "% Inhibition": 0, "Z score": 0.04}
{"smiles": "CC1(C)C(=O)NCCN1C(=O)CCS(=O)(=O)c1ccc(Cl)cc1", "% Inhibition": 2, "Z score": -0.22}
{"smiles": "Cc1ccc(CNC(=O)[C@]2(C)Cn3cnc(C(=O)NCc4ccc(C)o4)c3C(=O)N2C2CC2)cc1", "% Inhibition": -12, "Z score": 1.25}
{"smiles": "CN(CC[C@H]1CCCCN1C)C(=O)c1ncoc1-c1ccc2c(c1)OCCO2", "% Inhibition": 2, "Z score": -0.19}
{"smiles": "COc1ccc(F)c(CN2CCC[C@@]3(CCN(C(=O)Cn4cccn4)C3)C2)c1", "% Inhibition": 8, "Z score": -0.67}
{"smiles": "CCC(C)(C)NC(=O)Nc1cccc(Cl)c1", "% Inhibition": -1, "Z score": 0.15}
{"smiles": "CN=C(NC)NCc1cc2c(s1)CCC2", "% Inhibition": -5, "Z score": 0.65}
{"smiles": "CC(C)(C)Oc1ccc(-c2nc3ccc(-c4ccc5c(c4)OCO5)cc3o2)cc1", "% Inhibition": -29, "Z score": 2.53}
{"smiles": "CC[C@](C)(O)COc1cccc(Oc2ccncn2)c1", "% Inhibition": -4, "Z score": 0.47}
{"smiles": "O[C@@H]1CCN(C2CCN(c3cccc(-c4ccco4)c3)CC2)C1", "% Inhibition": -3, "Z score": 0.4}
{"smiles": "COc1ncc(NS(=O)(=O)c2cccc(F)c2)c(N(C)C)n1", "% Inhibition": -9, "Z score": 1.64}
{"smiles": "CC1NCCCC1NS(=O)(=O)Cc1ccccc1Cl", "note": "(stereo unspecified)", "% Inhibition": 8, "Z score": -1.04}
{"smiles": "CNc1nc(C(=O)NCc2cc(N3CCOCC3)ncn2)cs1", "% Inhibition": -2, "Z score": 0.34}
{"smiles": "CCC(CO)Nc1cc(NC2C3CCOC3C23CCC3)ncn1", "note": "(stereo unspecified)", "% Inhibition": -9, "Z score": 1.72}
{"smiles": "CC1CC(C)CN(S(=O)(=O)c2ccc(-c3nc4ccccc4s3)cc2)C1", "note": "(stereo unspecified)", "% Inhibition": -8, "Z score": 0.93}
{"smiles": "O=C(Nc1ccc2snnc2c1)N1CCOCC1", "% Inhibition": -12, "Z score": 2.06}
{"smiles": "CCc1nnc(COC(=O)c2ccc(S(=O)(=O)N3CCCC[C@@H]3C)cc2)o1", "% Inhibition": 2, "Z score": -0.24}
{"smiles": "COCCCC(=O)Nc1cc2c(=O)[nH]cnc2cc1F", "% Inhibition": -18, "Z score": 2.51}
{"smiles": "O=C(Cc1cncnc1)NCc1ccncc1OCC(F)(F)F", "% Inhibition": -12, "Z score": 1.5}
{"smiles": "CO[C@@H](CNC(=O)c1n[nH]c2c1CCC2)c1cccc(Cl)c1", "% Inhibition": -24, "Z score": 2.85}
{"smiles": "CCOc1ccccc1CN(CCN1CCCOCC1)C[C@H](C)O", "% Inhibition": -7, "Z score": 1.24}
{"smiles": "Cc1ccc(CN(CCO)c2ccc(C#N)cn2)o1", "% Inhibition": -6, "Z score": 1.18}
